Here are results for 172 sequences from PMC4242493.

Some of the results follow. The list includes weakly bound sequences.

The experiment has as its target MaxL homodimer (UniProt P61244). Put plainly: universal protein-binding microarray (PBM). Particulars: PBS-based mixture, 10 nM His-tagged protein dimer, 2% milk, 200 ng/uL BSA, 50 ng/uL salmon testes DNA, 0.02% TX-100; detection with Alexa 488 anti-His …; high values mean tight binding; most listed sequences are background and not binding sites; double strand, one strand shown.
Chain of UniProt P61244 (P61244 whole entry): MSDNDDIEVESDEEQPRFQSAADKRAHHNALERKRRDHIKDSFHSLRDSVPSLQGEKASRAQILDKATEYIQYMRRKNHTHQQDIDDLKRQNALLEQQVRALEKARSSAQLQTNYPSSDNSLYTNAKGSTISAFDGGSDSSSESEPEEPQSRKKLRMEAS
As for CTTCTTTC, the binding signal (normalized occupancy) worked out at 0.0757.
As for ACAATTTG, the binding signal (normalized occupancy) was 0.0746.
As for TACAATAA, the binding signal (normalized occupancy) came out at 0.0739.
To GAGTGTAC belongs 0.0756; to CACATAAC, 0.0843.
With ACTTTTCT, the binding signal (normalized occupancy) is 0.0737.
On to GAGCCAGC, for which the binding signal (normalized occupancy) came out at 0.0658.
Take AGATATCT: the binding signal (normalized occupancy) was 0.07.
To GGAACTTA belongs 0.0705; to AAGCCGTA, 0.0719.
To CTACTATC belongs 0.0774.
For CTTTTTCA, the binding signal (normalized occupancy) is 0.0749.
As to TCCTTCGA, the binding signal (normalized occupancy) is 0.0691.
To CGTTTCCA belongs 0.0827.
As to GTATACCA, the binding signal (normalized occupancy) came out at 0.0795.
To ATTTCTGA belongs 0.0779; to GTGGAGAA, 0.0797.
To AAACACCT belongs 0.0798; to CAGTGCTA, 0.0757.
For AGCGTCCA, the binding signal (normalized occupancy) turned out to be 0.069.
Consider AAAGACGG, for which the binding signal (normalized occupancy) turned out to be 0.068.
To GACCGGCC belongs 0.0683; to CCACTTAA, 0.0687; to GAGATTAC, 0.0753.
For the sequence CGCAAGGC, the binding signal (normalized occupancy) came out at 0.0706.
To AAAGACCA belongs 0.077.
With AAATGGGC, the binding signal (normalized occupancy) was 0.066.
With GCCAACCC, the binding signal (normalized occupancy) is 0.08.
CTAATTAC: the binding signal (normalized occupancy) was determined as 0.0753.
Turning to ACAGTTCG, the binding signal (normalized occupancy) turned out to be 0.0722.
As for AATTACAC, the binding signal (normalized occupancy) was 0.0784.
To ACGACGGG belongs 0.0787; to GATGAGTA, 0.0773.
As to AGTTGAAG, the binding signal (normalized occupancy) is 0.0735.
Regarding CACATTGG, the binding signal (normalized occupancy) amounted to 0.0977.
On to AGGCGAAT, for which the binding signal (normalized occupancy) is 0.0739.
With CGATAGGA, the binding signal (normalized occupancy) came out at 0.0771.
As for ATAGGAGC, the binding signal (normalized occupancy) stood at 0.0794.
To GGGGTGCA belongs 0.077.
To CAGACCCC belongs 0.085; to AAACCAAG, 0.0725; to CCTAACGC, 0.0772.
To GAAAATGA belongs 0.0795.
As for CGGCCGCA, the binding signal (normalized occupancy) turned out to be 0.0694.
To CAAAAAGA belongs 0.0763; to CTACGGGC, 0.067.
Take CTTTGAAA: the binding signal (normalized occupancy) worked out at 0.0757.
With TAAAGGAA, the binding signal (normalized occupancy) is 0.0741.
To CAGTGCAG belongs 0.0706; to AACCATTG, 0.0747; to AGGTAGCG, 0.0722.
In the case of ACAGCCCA, the binding signal (normalized occupancy) amounted to 0.0784.
With ATCAGTCA, the binding signal (normalized occupancy) was determined as 0.0756.
To AAAGAGTT belongs 0.0687; to CCTAGTAC, 0.0781; to CGCTGCAA, 0.0735.
To CATTGCAC belongs 0.0792.
To GTGCATAA belongs 0.0861; to AATATTGC, 0.073; to GCCCCGAC, 0.0707.
With AATTGAAG, the binding signal (normalized occupancy) was 0.0708.
To CTTAACCC belongs 0.0738.
To CCAGGGTA belongs 0.0747; to AAGATTCA, 0.0761.
On to ATCGTAGC, for which the binding signal (normalized occupancy) was 0.0757.
To ATAGATGC belongs 0.075; to ATCACCTA, 0.0828.
For the sequence AACCTTAT, the binding signal (normalized occupancy) came out at 0.0748.
Turning to AACGGGAA, the binding signal (normalized occupancy) is 0.0728.
As to GATACCGA, the binding signal (normalized occupancy) was 0.0705.
For the sequence AAAGAGGC, the binding signal (normalized occupancy) came out at 0.072.
As for ACCGGCGC, the binding signal (normalized occupancy) worked out at 0.0689.
To CTACCTGC belongs 0.0706.
To GCTCGAGA belongs 0.0767; to CATAACCC, 0.0804; to AACACCGG, 0.0717.
To AGCATCTG belongs 0.0764.
Regarding ATGAGTAG, the binding signal (normalized occupancy) is 0.0813.
To CCACCCCG belongs 0.0838.
To ACGACCGT belongs 0.0705.
To CGCTGCTA belongs 0.0695; to AACCGACG, 0.0669.
Turning to GATAATAA, the binding signal (normalized occupancy) came out at 0.0816.
To CACTGTCG belongs 0.0711; to CACAATAA, 0.0762; to CAGGTTAG, 0.0732.
To GGAAAAAA belongs 0.0713.
To AACAAAAA belongs 0.0685; to CATAGAGG, 0.0793; to CATGCGAG, 0.0975.
As for GTACGATA, the binding signal (normalized occupancy) was found to be 0.0786.
As for ATTAGTTA, the binding signal (normalized occupancy) was 0.078.
Turning to GCAGCCAA, the binding signal (normalized occupancy) was 0.0742.
To AATGCCTA belongs 0.0747; to GTGTTGGA, 0.0806; to CCAGCTTC, 0.0657.
As to CGACCGAC, the binding signal (normalized occupancy) is 0.076.
To CGGTTACG belongs 0.071; to ACACTAAT, 0.0825; to ATTGTCCC, 0.074.
To CATATGCC belongs 0.095; to AGAGGATG, 0.0826.
To AGTCATGG belongs 0.0855.
For the sequence CCAGGTGC, the binding signal (normalized occupancy) is 0.0833.
To GGCCGAAC belongs 0.067; to ACAAGCGA, 0.0756.
On to AGTGGTGA, for which the binding signal (normalized occupancy) was determined as 0.0801.
To CTACTCCC belongs 0.0756; to AGATTGCC, 0.0732.
On to ACCGTAGC, for which the binding signal (normalized occupancy) was 0.0736.
As for ACACCAGA, the binding signal (normalized occupancy) was found to be 0.0822.
Take AGCTGAAG: the binding signal (normalized occupancy) worked out at 0.0723.
To GCTCGCAA belongs 0.0734; to CGATAGTC, 0.0725.
Consider CTTATTAC, for which the binding signal (normalized occupancy) came out at 0.0796.
With AGAAAAAC, the binding signal (normalized occupancy) stood at 0.0758.
In the case of AGTCAAGG, the binding signal (normalized occupancy) worked out at 0.074.
For the sequence CCAGGCGC, the binding signal (normalized occupancy) worked out at 0.0763.
To GTATGAAC belongs 0.0809.
To GGTGCACC belongs 0.0777.
For the sequence ACTTCTGA, the binding signal (normalized occupancy) stood at 0.073.
To CGGCGATA belongs 0.0715; to GGATGCTA, 0.0763; to ACGGACTC, 0.0707.
As to ACCTCGGA, the binding signal (normalized occupancy) stood at 0.0702.
With AAGGGGCG, the binding signal (normalized occupancy) stood at 0.0757.
To ATTACAGG belongs 0.0787.
To TTATAGAA belongs 0.0824; to ACCCATCG, 0.0773; to CCGAAGTC, 0.0667.
Take AAGGCTGG: the binding signal (normalized occupancy) amounted to 0.0666.
Take GAGCGGCA: the binding signal (normalized occupancy) amounted to 0.0714.
For the sequence TACACCGA, the binding signal (normalized occupancy) was 0.0797.
To AGAAGTGC belongs 0.0758.
On to CCGCGAGA, for which the binding signal (normalized occupancy) is 0.0721.
To GGAACTCC belongs 0.068; to CTAGCTTC, 0.0694; to ATTACCAA, 0.0717.
To AGGACATA belongs 0.0758.
To TCGCTTAA belongs 0.077; to CCGTCTTC, 0.0665; to CGCTGCGC, 0.0689.
In the case of ACAACTTG, the binding signal (normalized occupancy) is 0.0751.
As to CTCCCCGA, the binding signal (normalized occupancy) is 0.0706.
On to ACCAATAG, for which the binding signal (normalized occupancy) stood at 0.0687.
To CACAACTG belongs 0.075.
On to AACGGCGA, for which the binding signal (normalized occupancy) was determined as 0.0682.
To CGTTCTCA belongs 0.0801; to AAACATAA, 0.0846.
To GCAAGGAC belongs 0.0681; to TACGCCGA, 0.0717; to GACGTTCC, 0.0707.
To CCTCTGCG belongs 0.0717; to GTAGCGTA, 0.0735; to AGTAGATA, 0.0825.
On to CGCGATGC, for which the binding signal (normalized occupancy) came out at 0.0665.
In the case of AATTTCCT, the binding signal (normalized occupancy) was found to be 0.0744.
Take CCCTGAAA: the binding signal (normalized occupancy) worked out at 0.0743.
Consider AAATGTAG, for which the binding signal (normalized occupancy) came to 0.0793.
As for AAACATCG, the binding signal (normalized occupancy) stood at 0.0768.
For AATCTTAA, the binding signal (normalized occupancy) was 0.0767.
To CCCACCGC belongs 0.0756.
To CGATAGAC belongs 0.0779; to AAGAGTCT, 0.0691.
In the case of TCCCTAGA, the binding signal (normalized occupancy) worked out at 0.0729.
ACGGAACG: the binding signal (normalized occupancy) is 0.0782.
Regarding GCATGCGA, the binding signal (normalized occupancy) was 0.119.
For CGAAATTC, the binding signal (normalized occupancy) came out at 0.0746.
For the sequence CACGTTGG, the binding signal (normalized occupancy) amounted to 0.122.
Take AGCCAGTA: the binding signal (normalized occupancy) stood at 0.072.
To GATGTGCA belongs 0.0814; to ATGAGCTC, 0.0798.
